Out of some 48,000 compounds screened, about 450 (0.94%) were called active. Inconclusive results (about 19%) are left out. The call rests on the fitted dose curve; in most records, active means well fitted inhibition curve with a large enough effect; inconclusive means small, poorly fitted or top-dose-only effect; inactive means no such curve, though single readings can be large or run the other way. The list shows a part of the results.
Potency means the concentration at half of the fitted maximal effect.

The experiment is described as follows: Primary qHTS for Identification of Small Molecule Inhibitors of Huntingtin Promoter Activity. Further: nearly all actives have a fitted effect of over 50% in size. As to conditions: HEK293 HTT promoter firefly luciferase reporter (activity 0% = vehicle and -100% = no light), 24 h; series mostly up to 57.5 µM; activity change, negative = inhibition: at the top concentration. Summed up:
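Quantitative HTS used concentration series of up to 57.5 uM final on HEK293 luciferase reporter cells, 24 h at 37 degrees C. Readout was Dual-Glo firefly luminescence.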
Background: qHTS replaces the single test concentration by a dilution series.
Turning to `CCOc1ccc(-c2nc3c(C#N)c[nH]n3c2NC2CCCC2)cc1`, the “activity change, negative = inhibition” value is inactive: 3.76%. Still for that read-out and setting: to `CNS(=O)(=O)c1cn(CC(=O)Nc2ccc(C)cc2C)cc1S(=O)(=O)NC` belongs inactive: 3.06%; to `CCOC(=O)c1cc(-c2ccc(C)cc2)nn1Cc1ccccc1`, inactive: 51.1%; to `Cc1ccc(-c2cn3c(n2)sc2cc(C(=O)NCCCc4ccccc4)ccc23)cc1`, inactive: 12.5%. With `CCc1ccccc1NC(=O)C1CCCN(S(=O)(=O)c2cccc3nsnc23)C1` (configuration not stated), the “activity change, negative = inhibition” value is inactive: -8.6%. `COc1ccc(CCNC(=O)CCc2c(C)nc3c(c(C)nn3-c3ccc(C)cc3)c2C)c(OC)c1`: the “activity change, negative = inhibition” value was inactive: -9.9%. With `Cc1ccc(-n2c3c(c(=O)[nH]c2=O)C(NC(=O)c2ccccc2F)(C(F)(F)F)C(=O)N3)cc1C` (configuration not stated), the “activity change, negative = inhibition” value was inactive: -3.53%. Turning to `CCN(CCCNC(=O)c1cc2c(=O)n(CC)c3ccccc3c2s1)c1cccc(C)c1`, the “activity change, negative = inhibition” value is inactive: 12.5%. Turning to `Cc1ccccc1-c1nc(CS(=O)(=O)CC(=O)NC(C)c2ccccc2)c(C)o1` (configuration not stated), the “activity change, negative = inhibition” value was inactive: -27.7%.

For the compound `CCc1ccc(N2CCn3c2nc2c3c(=O)n(Cc3ccc(F)cc3)c(=O)n2C)cc1`, the “activity change, negative = inhibition” value is inactive: 0.314%. On the same count and under the same terms, next, `COc1cc(-c2noc(C3CC(=O)N(c4ccc5c(c4)OCCO5)C3)n2)cc(OC)c1OC` (configuration not stated): inactive: -32.7%; `O=C(Nc1cc(F)ccc1F)C1COc2ccccc2C1` (configuration not stated): inactive: -3.03%; `CCN(CC)CC(=O)Nc1c(C)cccc1C`: inactive: -6.31%.

Turning to `Cc1ccc(CNc2ccc(-c3nc(-c4ccco4)no3)cc2[N+](=O)[O-])cc1`, the “activity change, negative = inhibition” value is inactive: -6.97%. As for `COc1ccc(C(=O)Nc2ccc(-n3nncc3-c3ccc(OC)c(OC)c3)cc2)cc1`, the “activity change, negative = inhibition” value was inactive: 0.41%. On to `Cc1ccc(S(=O)(=O)c2nc(-c3ccccc3)oc2N2CCN(c3ccccc3)CC2)cc1`, for which the “activity change, negative = inhibition” value was inactive: -11.6%. On to `Cc1ccc(-c2cc(C(=O)O)n(Cc3ccccc3)n2)cc1`, for which the “activity change, negative = inhibition” value is inactive: 36.1%. Take `Cc1nn(CC(=O)NCCc2ccccc2Cl)c(=O)c2nn(-c3ccccc3)c(C)c12`: the “activity change, negative = inhibition” value was inactive: -23.7%. Still for that read-out and setting: next, `CCOc1ccc(CNC(=O)Cn2nc(C)c3nn(-c4ccc(Cl)cc4)c(C)c3c2=O)cc1OC`: inactive: -4.23%. `CCC(C)NC(=O)c1sc2nc(C)c(C(=O)Nc3ccc(C)cc3C)c(-c3ccc(Cl)cc3)c2c1N` (configuration not stated): the “activity change, negative = inhibition” value is inactive: -7.93%.

Turning to `CC(=O)OCC(=O)[C@@]12OC(C)(C)O[C@@H]1C[C@H]1[C@@H]3C[C@H](F)C4=CC(=O)C=C[C@]4(C)[C@@]3(F)[C@@H](O)C[C@@]12C`, the “activity change, negative = inhibition” value is inactive: 7%.

For `COc1ccc(CNCc2c(C(=O)O)c(C)n(Cc3ccc(Cl)cc3)c2C)c(OC)c1`, the “activity change, negative = inhibition” value is inactive: -15.4%. With `c1ccc2c(CC3=NCCN3)cccc2c1`, the “activity change, negative = inhibition” value is inactive: -2.41%. On the same count and under the same terms, next, `Cc1ccc2c(c1)c1c(c(=O)n(-c3ccccc3C)c(=O)n1CC(=O)NCCC1=CCCCC1)n2C`: inactive: -7.63%; `CC(=O)c1cc(-c2ccc(F)cc2)n(CCC(=O)Nc2nc3c(C)cccc3s2)c1C`: inactive: -7.86%. With `Cc1ccc(Cc2nc3ccccc3nc2SCC(=O)Nc2cccc(C(F)(F)F)c2)cc1`, the “activity change, negative = inhibition” value was inactive: -28.1%. Still for that read-out and setting: to `O=C(CN1CCSc2ccccc21)N1CCN(c2cccc(Cl)c2)CC1` belongs inactive: -33.2%. As to `COC(=O)c1cnn(-c2ccc(C(=O)Nc3ccc(C(C)=O)cc3)cc2)c1N`, the “activity change, negative = inhibition” value is inactive: -1.34%.

As to `CC(C)(C)c1ccc(S(=O)(=O)NCc2nc3cccnc3n2Cc2ccccc2Cl)cc1`, the “activity change, negative = inhibition” value was inactive: -21.8%. Consider `CC(C)c1ccccc1NC(=O)CN1C(=O)c2cccc3cccc1c23`, for which the “activity change, negative = inhibition” value was inactive: -29.2%.

As to `CCC(=O)Nc1ccc2nc(SCc3ccc(C)cc3)sc2c1`, the “activity change, negative = inhibition” value was inactive: -3.68%.

`O=C(CSc1nc(-c2ccccc2)[nH]c1-c1ccccc1)Nc1ccc2c(c1)OCCO2`: the “activity change, negative = inhibition” value was inactive: -29.4%. With `CCCSCCCNC(=O)c1ccc2c(c1)nc1n2CCCCC1`, the “activity change, negative = inhibition” value is inactive: 21.2%. For `Cc1ccc(Nc2cc(C)c(C#N)c3nc4ccccc4n23)cc1Cl`, the “activity change, negative = inhibition” value was inactive: -4.74%. Same read-out and setting: next, `CC(C)c1cc(-c2nc(-c3ccccc3)no2)n[nH]1`: inactive: 29.7%; `COc1ccc(S(=O)(=O)N2CCN(Cc3ccc4c(c3)OCO4)CC2)cc1OC`: inactive: -26.9%. With `COCCNC(=O)c1nn(-c2ccc(Cl)cc2)nc1CO`, the “activity change, negative = inhibition” value is inactive: 8.58%. Turning to `COc1ccc(CNC(=O)c2cc3c(=O)n(C)c4ccccc4c3n2C)cc1`, the “activity change, negative = inhibition” value is inactive: -1.13%. For the compound `Cn1cnc(S(=O)(=O)N2CCC(C(=O)NCc3ccc(Cl)cc3)CC2)c1`, the “activity change, negative = inhibition” value is inactive: -14.8%. For the compound `O=C(CSc1ccccc1)NCc1ccc2c(c1)CCN2C(=O)c1ccc(F)cc1`, the “activity change, negative = inhibition” value was inactive: -10.4%. The same measure, in the same setting: to `CCOc1cc(C2CC(=O)Nc3nc(SCc4ccccc4)[nH]c(=O)c32)ccc1O` (configuration not stated) belongs inactive: -26.3%. Same read-out and setting: next, `O=C(Nc1cccc2cccnc12)c1ccc(F)cc1`: inactive: 65%. As to `CCc1ccc2oc(-c3ccc(NC(=O)c4cc(OC)c(OC)c(OC)c4)cc3)nc2c1`, the activity change, negative = inhibition is inactive: -7.91% [at 11.5 µM]. Same read-out and setting: next, `CCOC(=O)c1ccc(N2C(=O)c3[nH]nc(-c4ccc(OCC)cc4)c3C2c2ccc(OC)cc2OC)cc1` (configuration not stated): inactive: -25.3%; `CCc1ccc(CNC(=O)CCCN2C(=O)c3cccnc3Oc3ccc(Cl)cc32)cc1`: inactive: -11.9%. On to `Cc1ccccc1-c1nnc(C2CCN(S(=O)(=O)c3ccc(Cl)cc3)CC2)o1`, for which the Potency was active: 15.8 µM. Take `O=C(COc1ccccc1)Nc1nnc(S(=O)(=O)N2CCCCCC2)s1`: the “activity change, negative = inhibition” value is inactive: -23.2%. Consider `COc1cccc(N2CCN(C(=O)CCc3c(C)nc4c(c3C)c(=O)n(C)c(=O)n4C)CC2)c1`, for which the “activity change, negative = inhibition” value was inactive: -6.27%. Regarding `CCC(C)NC(=O)c1ccc2c(c1)N(Cc1ccccc1)C(=O)c1ccccc1S2` (configuration not stated), the “activity change, negative = inhibition” value was inactive: -21.2%. As for `CCN(CC)c1cc2c(cc1F)c(=O)c(S(=O)(=O)c1ccc(OC)cc1)cn2CC`, the “activity change, negative = inhibition” value is inactive: -19.5%. The same measure, in the same setting: to `COc1ccc(-c2nc(CN3CCC(C(=O)NCc4ccccc4)CC3)c(C)o2)cc1OC` belongs inactive: 6%. Take `Cn1nnc2c(N3CCN(c4ccccc4Cl)CC3)ncnc21`: the “activity change, negative = inhibition” value is inactive: -17.8%. As to `COc1ccc(-c2c3c(=O)n(C)c(=O)n(C)c3c3c(C)nc4ccccc4n23)cc1`, the “activity change, negative = inhibition” value is inactive: -13.8%.

In the case of `CCOC(=O)Cn1c(=O)n(-c2ccccc2OC)c2nc(-c3cccc(F)c3)nc(C(N)=O)c21`, the “activity change, negative = inhibition” value was inactive: -7.37%. On to `Cc1ccc(-c2nnc(SCc3cccc(C#N)c3)o2)cc1`, for which the “activity change, negative = inhibition” value was inactive: 16.1%. For the compound `CCOC(=O)c1ccccc1NC(=O)N(C(C)C)C1CCN(C(C)=O)CC1`, the “activity change, negative = inhibition” value was inactive: -14.5%.

For the compound `CCOC(=O)c1cccnc1SCC(=O)Nc1ccc(C)cc1C`, the “activity change, negative = inhibition” value was inactive: -19.5%.

Regarding `Cc1ccc2c(c1)-c1c(cnc3cc(-c4ccccc4)nn13)CO2`, the “activity change, negative = inhibition” value is inactive: 7.21%. On the same count and under the same terms, next, `O=C(NCCc1ccccc1)c1nnc(Cc2cccc(F)c2)o1`: inactive: -24.7%; `CN(C)CCNC(=O)c1ccc2c(=O)n3c(nc2c1)CCCCC3`: inactive: -1.29%; `O=C(CCS(=O)(=O)c1cccs1)Nc1ccc(C(=O)Nc2ccccc2F)cc1`: inactive: 23%. For `Cc1ccc(C)c(Cn2cc(S(=O)(=O)c3ccc(Cl)cc3)c(=O)c3cc(F)ccc32)c1`, the “activity change, negative = inhibition” value is inactive: -9.33%.

The values above are taken from PubChem BioAssay AID1508623 (National Center for Advancing Translational Sciences (NCATS), 2021).
